# Data from article PMC4336329 (PLoS ONE, 2015).
# The whole screen tested about 310,000 compounds, of which about 2,200 (0.71%) showed an effect of 50% or more. Effects have a minus sign here. Some of the results follow.
# Target: human ether-à-go-go-related gene (hERG) potassium channel (human, UniProt Q12809)
# Assay: primary screen, population patch clamp on CHO cells stably expressing hERG
# Chain of human ether-à-go-go-related gene (hERG) potassium channel (Q12809 whole entry, looked up): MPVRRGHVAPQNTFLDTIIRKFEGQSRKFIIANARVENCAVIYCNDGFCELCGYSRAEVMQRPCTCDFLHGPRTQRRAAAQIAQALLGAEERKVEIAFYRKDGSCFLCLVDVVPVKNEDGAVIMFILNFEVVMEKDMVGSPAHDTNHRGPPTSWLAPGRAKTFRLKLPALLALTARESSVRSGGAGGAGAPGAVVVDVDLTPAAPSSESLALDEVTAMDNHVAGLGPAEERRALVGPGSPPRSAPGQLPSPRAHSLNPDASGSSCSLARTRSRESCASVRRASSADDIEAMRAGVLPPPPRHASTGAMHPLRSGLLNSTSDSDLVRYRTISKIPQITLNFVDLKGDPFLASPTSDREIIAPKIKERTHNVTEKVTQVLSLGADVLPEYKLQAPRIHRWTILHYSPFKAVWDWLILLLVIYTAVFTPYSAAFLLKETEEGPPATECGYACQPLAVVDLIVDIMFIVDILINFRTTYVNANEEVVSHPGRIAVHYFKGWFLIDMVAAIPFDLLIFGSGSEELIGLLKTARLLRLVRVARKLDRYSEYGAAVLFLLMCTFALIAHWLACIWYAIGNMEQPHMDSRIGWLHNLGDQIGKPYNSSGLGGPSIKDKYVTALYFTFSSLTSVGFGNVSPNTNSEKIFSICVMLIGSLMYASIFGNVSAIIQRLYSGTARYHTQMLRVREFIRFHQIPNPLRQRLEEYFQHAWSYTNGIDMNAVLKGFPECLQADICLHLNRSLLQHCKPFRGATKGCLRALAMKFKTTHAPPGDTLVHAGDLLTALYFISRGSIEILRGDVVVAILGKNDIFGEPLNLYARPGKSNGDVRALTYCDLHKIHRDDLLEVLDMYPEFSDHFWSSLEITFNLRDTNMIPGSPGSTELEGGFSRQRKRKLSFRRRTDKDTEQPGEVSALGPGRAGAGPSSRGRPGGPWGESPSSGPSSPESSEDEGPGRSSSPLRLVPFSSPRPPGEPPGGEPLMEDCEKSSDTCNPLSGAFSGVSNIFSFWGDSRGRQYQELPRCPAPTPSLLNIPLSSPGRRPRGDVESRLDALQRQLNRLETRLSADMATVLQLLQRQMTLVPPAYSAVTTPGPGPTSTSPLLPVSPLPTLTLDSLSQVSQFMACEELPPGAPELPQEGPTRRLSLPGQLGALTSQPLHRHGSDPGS
row,SMILES,"hERG current change (%, negative = inhibition) at 1uM [%]"
1,COc1cccc(C(N)=O)c1OC(=O)Cc1ccccc1F,8.18
2,COC(=O)c1c(NC(=O)Cc2ccccc2)sc2c1C(C(=O)OC)CC2 (stereo not drawn),7.85
3,CSCCC(NS(=O)(=O)c1ccc(Cl)cc1)C(=O)OCc1cccc(Cl)c1 (stereo not drawn),3.09
4,Cc1csc(NC(=O)CSc2ccc(-c3ccccc3)nn2)n1,-2.62
5,COc1ccc(Cl)cc1NC(=O)CN(C)C(=O)Cc1n[nH]c(=O)c2ccccc12,3.92
6,Cn1c(SCC(=O)N2CCc3ccccc32)nnc1C1CC1,17.9
7,Cc1ccc(N(CC(=O)NC(C)c2ccccc2)S(=O)(=O)c2cccs2)cc1 (stereo not drawn),11.3
8,CCOC(=O)c1c(O)cc(C)cc1Nc1ccccc1,15.8
9,O=C(COc1ccccc1[N+](=O)[O-])N/N=C/c1ccncc1,10.1
10,CN1CCN(C(CNS(=O)(=O)c2ccc(F)cc2)c2cccnc2)CC1 (stereo not drawn),6.68
11,CC12CCC(C(=O)N(CC(O)CN3CCN(Cc4ccccc4)CC3)C1=O)C2(C)C.Cl (stereo not drawn),11.2
12,CCn1c(COc2ccccc2)nnc1SCC(=O)NCc1ccco1,7.83
13,Cc1ccc(NC(=O)C2CCCN(C(=O)c3ccc(Cl)cc3)C2)c(C)c1 (stereo not drawn),-5.44
14,CCOc1ccc(N2C(=O)S/C(=C\c3ccc(O)c(OCC)c3)C2=O)cc1,11
15,O=C(COC(=O)c1ccc2c(c1Cl)C(=O)c1ccccc1C2=O)NC1CC1,11.9
16,CCN1CCN(c2ccc(NC(=O)c3cccnc3)cc2Cl)CC1,2.18
17,O=C(NNC1CC(=O)N(c2ccccc2)C1=O)c1cccnc1 (stereo not drawn),16.4
18,CCCCCCCn1c(NC(=O)CC)nc2ccccc21,2.09
19,N#Cc1ccc(C23CC4(C2)[C@H](CN(Cc2ccc(-c5ccccc5)cc2)[C@@H]4c2ccccc2)C3c2ccc(C(F)(F)F)cc2)cc1 (stereo partly drawn),12.9
20,Cc1onc(-c2ccccc2Cl)c1C(=O)Nc1nnc(-c2ccc(Br)cc2)s1,16.7
21,O=c1c2c(n3nnnc3n1-c1ccccc1)-c1ccccc1CC21CCCC1,10.2

row,SMILES,"hERG current change (%, negative = inhibition) at 1uM [%]"
1,Cc1cccc(N(CC(=O)N2CCc3ccccc3C2)S(C)(=O)=O)c1C,4.83
2,COC(=O)c1cc(NS(=O)(=O)c2ccc(NCc3cccnc3)c([N+](=O)[O-])c2)cc(C(=O)OC)c1,12.3
3,COc1cccc(CNC(=O)CCC2CCCN(C(=O)c3cccc(Cl)c3)C2)c1 (stereo not drawn),4.9
4,CCC1=NN(C(=O)c2ccccc2Br)C(O)(c2ccc(Br)cc2)C1 (stereo not drawn),10.5
5,C(=C\c1ccc(/C=C/c2ccccc2)nn1)/c1ccccc1,18.3
6,CCOc1ccc(S(=O)(=O)N2CCC(C(=O)N3CCc4ccccc4C3)CC2)cc1,8.58
7,COc1cccc(N(C(=O)C2COc3ccccc3O2)C(C(=O)NC2CCCCC2)c2ccc(O)cc2)c1 (stereo not drawn),1.66
8,Cc1cccc(NC(=O)C(NS(=O)(=O)c2ccc3c(c2)CCC(=O)N3)c2ccccc2)n1 (stereo not drawn),-12.6
9,CC(C)c1ccccc1-n1c(SCC(=O)N2CCN(c3ccccc3)CC2)nnc1-c1cccnc1,3.18
10,CCCN(C(=O)CSc1nc2cc(S(=O)(=O)N(CC)CC)ccc2o1)C1CCS(=O)(=O)C1 (stereo not drawn),-1.88
11,COc1ccc(S(=O)(=O)N2CCCCCC2)cc1C(=O)N(C)CC(=O)Nc1ccccc1C(F)(F)F,9.11
12,c1ccc2nc(N3CCOCC3)c(N3CCOCC3)nc2c1,15.1
13,COC(=O)c1cc2nc(-c3ccc(OC)c(OC)c3)cc(C(F)(F)F)n2n1,12.2
14,Cc1ccc(NC(=O)O/N=C/c2ccc(N(C)C)cc2)cc1,12.5
15,Cc1ccc(S(=O)(=O)N2CCOC2CNC(=O)C(=O)NCCCc2ccccc2)cc1 (stereo not drawn),5.36
16,Cl.O=C(Nc1cccc(C(F)(F)F)c1)c1cccnc1N1CCOCC1,17.1
17,N/C(=N\c1nc2ccccc2o1)NC(=O)c1ccc([N+](=O)[O-])cc1,-1.33
18,Cc1ccnc(NS(=O)(=O)c2ccc(NC(=O)C3CCCNC3=O)cc2)n1 (stereo not drawn),3.36
19,CCCN1C(=O)/C(=c2\sc3nc(=O)c(Cc4ccc(C)cc4)nn3c2=O)c2ccccc21,13
20,O=C(Nc1ccc(N2CCOCC2)cc1)C1CC(=O)N(c2ccc(Cl)cc2)C1 (stereo not drawn),12.7
21,CN(CC(=O)Nc1c(Cl)cccc1Cl)C(=O)c1ccncc1,17.4

row,SMILES,"hERG current change (%, negative = inhibition) at 1uM [%]"
1,CCC(CC)NC(=O)CSc1nnc(-c2ccc(OC)cc2)n1C(C)C,4.42
2,COc1ccc(N2CCN(C(=O)c3ccc4c(=O)n(CCc5ccc(OC)c(OC)c5)c(=O)[nH]c4c3)CC2)cc1,12.8
3,N#Cc1cccnc1N1CCN(C(=O)COCC(=O)O)CC1,13
4,COCC(C)n1c(C)cc(C(=O)COC(=O)c2ccc(N3CCCC3=O)cc2)c1C (stereo not drawn),16.5
5,CCOc1cc(/C=C2\SC(=S)N(NS(=O)(=O)c3ccc(C)cc3)C2=O)ccc1O,9.88
6,Cc1noc(C)c1S(=O)(=O)N1CCC(C(=O)N2CCN(c3ccc(Cl)cc3)CC2)CC1,6.26
7,COc1ccc(C2C3=C(CCCC3=O)Nc3nc(C(F)(F)F)nn32)cc1OC (stereo not drawn),13.1
8,N/C(=N\NC(=O)Nc1ccc(Cl)cc1)c1ccccn1,-8.23
9,COc1ccc(Cc2[nH]n3c(=O)c(Cl)c(C)nc3c2-c2ccccc2)cc1,16.8
10,Cc1oc(-c2ccc(Cl)cc2)nc1CS(=O)CC(=O)NCc1ccccn1 (stereo not drawn),10.8
11,O=C(c1ccc(F)cc1)C1CCN(C(=S)Nc2ccccc2)CC1,3.76
12,Cc1nnc(N(Cc2ccco2)C(=O)c2cccc(C#N)c2)s1,6.22
13,COC(=O)C(/C=N/O)NC(=O)c1ccccc1 (stereo not drawn),15.7
14,COc1ccc(N2CCN(C(=O)CSc3nc4cc(OC)c(OC)cc4cc3C#N)CC2)cc1,6.4
15,Cc1noc(C)c1CN1C(=O)c2ccc([N+](=O)[O-])cc2C1=O,9.93
16,Cc1cc(C)c(NC(=O)CN2C(=O)NC3(CCCc4ccccc43)C2=O)c(Cl)c1 (stereo not drawn),12.7
17,COc1ccc(NC(=O)CSc2nnc(CN3CCOCC3)n2-c2ccccc2)cc1Cl,-2.55
18,CCOC(=O)CSc1ncnc2c1cnn2-c1ccc(Cl)cc1,-0.206
19,CCCCN(C)CCCN1C(=O)C2C(C(=O)Nc3cccc(OC)c3)C3C=CC2(O3)C1C(=O)NC1CCCCC1C (stereo not drawn),13.1
20,CC(C)CNC1=C(C(=S)Nc2ccccc2)C(=O)CC(C)(C)C1,13.7
21,O=C(NCCc1ccccc1)C(=O)NCC1OCCCN1S(=O)(=O)c1ccc(F)cc1 (stereo not drawn),3.24

row,SMILES,"hERG current change (%, negative = inhibition) at 1uM [%]"
1,N#C/C(=C\c1cccs1)C(=O)Nc1ccccn1,4.17
2,COc1ccc(-c2csc(NC3OC(=O)c4c3ccc(OC)c4OC)n2)cc1OC (stereo not drawn),11.5
3,Cc1cccc(C)c1OCC(N)C(C)C.I (stereo not drawn),-5.22
4,NC(=O)CC(NC(=O)Cc1cccc2ccccc12)c1ccc(NC2CCCCCCC2)c([N+](=O)[O-])c1 (stereo not drawn),6.37
5,CN1CCN(C(=O)C2(NC(=O)NCc3ccccc3)CCCCC2)CC1,14.1
6,CCOc1ccc(C2NCCc3cc(OC)c(OC)cc32)cc1OC (stereo not drawn),10.2
7,Clc1c(-c2nnc3n2CCC3)sc2ccccc12,14.5
8,COC(=O)c1cnn(-c2ccc(C)c(C)c2)c1-n1cccc1,9.4
9,CCCC(C)c1nc(C(N)=O)c2[nH]c(=O)n(-c3ccc(OC)cc3OC)c2n1 (stereo not drawn),9.22
10,Clc1ccc(N2CCN(/N=C/c3cccnc3)CC2)cc1,8.03
11,Cc1cc(C)c(S(=O)(=O)NCCn2c(C)cc3ccccc32)c(C)c1,15.3
12,CCOC(=O)c1ccccc1NC(=O)COC(=O)CCC(=O)c1ccccc1,10.2
13,CC(C)CCNC(=O)CCC(=O)NNc1nc2ccccc2c2nc(-c3ccccc3)nn12,7.5
14,CCC(CC)NC(=O)Cn1c(C(C)NC(C)=O)nc2ccccc21 (stereo not drawn),11.9
15,Cn1nc(-c2ccccc2)c(C#N)c1Sc1cccc(Cl)c1,10.4
16,O=C(CCS(=O)(=O)c1cccc2nsnc12)NC1CCCCCC1,22.7
17,Clc1nc(NCc2cccnc2)nc(N2CCOCC2)n1,10.1
18,O=C1CC(c2cccc(Cl)c2)Cc2nc(N3CCN(c4ccccc4)CC3)ncc21 (stereo not drawn),9.93
19,COc1ccc2c(c1OC)C(=O)OC2c1c(O)n(Cc2ccc(F)cc2)c(=O)[nH]c1=O (stereo not drawn),4.88
20,O=C(COC(=O)Cc1ccsc1)Nc1ccccc1Cl,2.57
21,O=C(CN1CCN(c2ccccc2O)CC1)NC(=O)NCc1ccccc1,10.5
